The campaign covered roughly 310,000 compounds. About 14,000 (4.5%) showed an effect of 50% or more. Effects have a minus sign here. The list shows a part of the results.
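Note: peak tail current of the secondary pulse compared with the same well before compound.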

Sequence of human ether-à-go-go-related gene (hERG) potassium channel (Q12809 whole entry, looked up): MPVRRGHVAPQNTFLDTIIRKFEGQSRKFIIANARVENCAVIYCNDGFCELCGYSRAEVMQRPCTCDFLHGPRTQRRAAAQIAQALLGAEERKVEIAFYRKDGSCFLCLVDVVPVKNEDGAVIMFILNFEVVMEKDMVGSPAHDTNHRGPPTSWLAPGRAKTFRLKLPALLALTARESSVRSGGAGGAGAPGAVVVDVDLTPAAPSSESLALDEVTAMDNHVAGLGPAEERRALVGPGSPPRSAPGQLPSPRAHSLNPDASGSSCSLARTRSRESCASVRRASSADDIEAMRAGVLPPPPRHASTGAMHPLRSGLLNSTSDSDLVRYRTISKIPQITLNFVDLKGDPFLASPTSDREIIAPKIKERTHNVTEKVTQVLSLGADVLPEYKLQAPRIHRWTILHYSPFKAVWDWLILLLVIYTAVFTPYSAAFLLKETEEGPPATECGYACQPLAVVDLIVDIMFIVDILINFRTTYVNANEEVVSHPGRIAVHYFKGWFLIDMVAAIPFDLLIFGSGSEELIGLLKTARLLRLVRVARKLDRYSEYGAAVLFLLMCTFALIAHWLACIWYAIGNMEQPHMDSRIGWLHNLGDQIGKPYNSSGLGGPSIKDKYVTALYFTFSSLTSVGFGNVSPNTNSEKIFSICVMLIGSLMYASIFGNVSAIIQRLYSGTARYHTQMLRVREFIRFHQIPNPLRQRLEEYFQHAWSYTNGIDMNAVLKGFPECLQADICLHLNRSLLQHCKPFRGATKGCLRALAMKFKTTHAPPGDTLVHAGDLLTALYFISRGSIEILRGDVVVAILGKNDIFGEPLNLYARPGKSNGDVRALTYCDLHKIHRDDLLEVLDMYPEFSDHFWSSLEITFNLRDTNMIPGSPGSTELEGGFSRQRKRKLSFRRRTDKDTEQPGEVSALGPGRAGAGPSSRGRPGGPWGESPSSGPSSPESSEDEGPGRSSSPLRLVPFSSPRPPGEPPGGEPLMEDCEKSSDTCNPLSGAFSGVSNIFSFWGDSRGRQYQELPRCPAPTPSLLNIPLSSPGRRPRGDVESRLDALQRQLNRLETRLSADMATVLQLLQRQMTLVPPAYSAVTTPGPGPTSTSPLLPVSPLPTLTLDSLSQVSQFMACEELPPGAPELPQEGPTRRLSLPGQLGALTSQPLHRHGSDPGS

This assay addresses human ether-à-go-go-related gene (hERG) potassium channel (human, UniProt Q12809). The assay is described as follows: primary screen, population patch clamp on CHO cells stably expressing hERG.
For the compound `CCOC(=O)c1c(CNc2ccncc2)n(C)c2cc(Br)c(O)cc12.Cl`, the “hERG current change (%, negative = inhibition) at 10uM” value is listed as 18.8%.
For `CCCCNC(=S)NNC(=O)c1ccc(Br)o1` the value was 12.3%; for `Cc1cc(N=NC(=O)c2ccccc2)ccc1O`, 4.74%.
As to `CCc1cc2c(N3CCN(c4ccccc4)CC3)ncnc2s1`, the “hERG current change (%, negative = inhibition) at 10uM” value was -43.5%.
For `CC(NS(=O)(=O)c1cn(C)c(=O)n(C)c1=O)c1ccccc1` (centres unmarked) the value was -1.82%; for `Cc1cc(C)n(-c2ccc([N+](=O)[O-])cc2)n1`, 1.56%.
For `COc1cccc(NC(=O)CN(C)C(=O)c2cc(-c3cccc(Br)c3)nc3ccccc23)c1` the value was 7.42%; for `CC(=O)Nc1ccc(S(=O)(=O)NCc2ccc3[nH]c(C)cc3c2)cc1`, 21%; for `O=C(Nc1ccc(C(=O)N2CCCC2)cc1)c1ccccc1F`, -4.82%.
Consider `O=C1CCC([N+](=O)[O-])C(c2ccccc2Cl)N1` (centres unmarked), for which the “hERG current change (%, negative = inhibition) at 10uM” value is 6.99%.
Take `COc1cccc(C2Nc3ccccc3C(=O)N2Cc2ccccc2)c1` (centres unmarked): the “hERG current change (%, negative = inhibition) at 10uM” value is on record as -33.5%.
The result for `CCOC(=O)c1c(-c2ccc(C)s2)csc1N` reads 7.8%; that for `O=C(Nc1nc2ccccc2c(=O)s1)c1ccc(F)cc1Cl`, 15.3%; that for `COC(=O)c1cccc(-c2noc(-c3ccccc3F)n2)c1`, 21.5%.
For `CC(=O)Nc1nnc(/C=C/c2cccc([N+](=O)[O-])c2)s1` the value was 8.33%.
Regarding `CC(C)c1ccc(NC(=O)CCCC(=O)NCCc2ccccc2)cc1`, the “hERG current change (%, negative = inhibition) at 10uM” value is recorded as -4.28%.
The result for `Cc1cc(C)cc(NS(=O)(=O)c2ccc3c(c2)C(C)(C)C(=O)N3C)c1` reads -2.14%; that for `C=CCOc1ccccc1CN1CCC(n2nccc2NC(=O)C2CCOC2)CC1` (centres unmarked), -21.5%.
On to `O=S(=O)(NCC1CC1)c1ccc(F)c(Cl)c1`, for which the “hERG current change (%, negative = inhibition) at 10uM” value came to 5.18%.
As for `N#CC1(c2nc3ccccc3[nH]2)CC1c1ccc2c(c1)OCO2` (centres unmarked), the “hERG current change (%, negative = inhibition) at 10uM” value came out at 0.101%.
The result for `Cc1sc(NC(=O)c2ccccc2)c(C(=O)NCCN(C)C)c1C` reads -13.8%; that for `O=C(CN1CCOCC1)Nc1ccc(F)cc1`, 2.97%; that for `COc1ccccc1NS(=O)(=O)c1ccc2oc(SCc3ccc(C#N)cc3)nc2c1`, -0.701%.
The result for `Br.CCCSc1ccc2nc(-c3ccccc3)cn2c1` reads -9.24%; that for `CCOC(=O)c1c(CN2CCN(CC#N)CC2)n(C)c2cc(Br)c(OC)cc12`, 10.9%.
The result for `C=CCC1(C(=O)N(C)Cc2ccccc2)CCN(C(=O)OC(C)(C)C)CC1` reads -15.6%.

These data come from paper PMC4336329 (PLoS ONE, 2015).
